These results are taken from a collection of fitness landscapes (doi:10.1126/science.1257360).

Some of the results follow.

First the molecules themselves.
B1: PhoQ; a variant is named by its letters at X, in order, P23837 (parent)
chain: MKKLLRLFFPLSLRVRFLLATAAVVLVLSLAYGMVALIGYSVSFDKTTFRLLRGESNLFYTLAKWENNKLHVELPENIDKQSPTMTLIYDENGQLLWAQRDVPWLMKMIQPDWLKSNGFHEIEADVNDTSLLLSGDHSIQQQLQEVREDDDDAEMTHSVAVNVYPATSRMPKLTIVVVDTIPVELKSSYMVWSWFIYVLSANLLLVIPLLWVAAWWSLRPIEALAKEVRELEEHNRELLNPATTRELTSLVRNLNRLLKSERERYDKYRTTLTDLTHSLKTPLXXLQXXLRSLRSEKMSVSDAEPVMLEQISRISQQIGYYLHRASMRGGTLLSRELHPVAPLLDNLTSALNKVYQRKGVNISLDISPEISFVGEQNDFVEVMGNVLDNACKYCLEFVEISARQTDEHLYIVVEDDGPGIPLSKREVIFDRGQRVDTLRPGQGVGLAVAREITEQYEGKIVAGESMLGGARMEVIFGRQHSAPKDE

In the assay the parent is B1. The experiment in a line: enrichment ratio after two sorts for PhoP signalling (ratio (wild type AVST 3.29)); higher = more functional. Conditions: with PhoP (E. coli).
Turning to YKME, the enrichment ratio was no more than 0.25.

For MEIE, the enrichment ratio was no more than 0.25. Under QPFN stands no more than 0.25; under YCAH, 0.38. Under HRVC stands no more than 0.25. Under DPHR stands no more than 0.25; under RANT, no more than 0.25; under WAIK, no more than 0.25. For the variant RVKA, the enrichment ratio is no more than 0.25. Under MVEF stands no more than 0.25; under AFSF, no more than 0.25.

Take QPAY: the enrichment ratio was no more than 0.25. Take PDTH: the enrichment ratio was no more than 0.25. As for HLCH, the enrichment ratio was no more than 0.25.

RWSN: the enrichment ratio is no more than 0.25. Take LMND: the enrichment ratio is no more than 0.25. Under PFKK stands no more than 0.25. Under GKRD stands no more than 0.25; under HPQH, no more than 0.25. Under PGDT stands no more than 0.25. Consider RVFH, for which the enrichment ratio was no more than 0.25. Under VTRL stands no more than 0.25.

Turning to LSLQ, the enrichment ratio stood at 1.79.

PYVH: the enrichment ratio was no more than 0.25. Under FIQQ stands no more than 0.25; under WHKG, no more than 0.25; under LYPD, no more than 0.25. Next, FLQK: no more than 0.25.

As to LHKL, the enrichment ratio was no more than 0.25. For the variant KMPL, the enrichment ratio is no more than 0.25. Under DRIY stands no more than 0.25; under MLAM, 15.5; under ADIN, no more than 0.25.

On to ISIF, for which the enrichment ratio is no more than 0.25.

RIDP: the enrichment ratio was no more than 0.25. For the variant MSVK, the enrichment ratio is no more than 0.25. Regarding TRQQ, the enrichment ratio was no more than 0.25.

In the case of YNVT, the enrichment ratio is no more than 0.25. On to GEYI, for which the enrichment ratio is no more than 0.25. For the variant MIIH, the enrichment ratio is no more than 0.25. Under KIID stands no more than 0.25; under SYDS, no more than 0.25.

In the case of WWPA, the enrichment ratio was no more than 0.25. Under YKKR stands no more than 0.25; under GYQF, no more than 0.25. Under LVVV stands no more than 0.25; under NLPV, no more than 0.25. For IIEP, the enrichment ratio was no more than 0.25. As to THAD, the enrichment ratio was 0.554. Under FCVM stands no more than 0.25; under QDDC, no more than 0.25; under DLCR, no more than 0.25. Under VLSF stands no more than 0.25; under HMIY, no more than 0.25; under DHNN, no more than 0.25. Next, NCLQ: no more than 0.25; QSQH: no more than 0.25; VPAC: no more than 0.25. As to KNTQ, the enrichment ratio is no more than 0.25. On to FFVG, for which the enrichment ratio was no more than 0.25. Under LLQY stands no more than 0.25. Under WTYP stands no more than 0.25; under DKMH, no more than 0.25. For the variant GKSW, the enrichment ratio was no more than 0.25. Next, WEDV: no more than 0.25; NTDP: no more than 0.25; KHPV: no more than 0.25.

Regarding CMFF, the enrichment ratio is no more than 0.25. Take CLYN: the enrichment ratio was no more than 0.25. Next, STHN: no more than 0.25; TSKV: no more than 0.25; PKHK: no more than 0.25. Under VRSA stands no more than 0.25.

As for LFWP, the enrichment ratio was no more than 0.25. Next, YAVG: no more than 0.25; VNEC: no more than 0.25. Under NMGF stands no more than 0.25; under NTGW, no more than 0.25. Under EDIN stands no more than 0.25; under YAPN, no more than 0.25; under PTDW, no more than 0.25. Turning to AIID, the enrichment ratio was no more than 0.25.

As for YPFC, the enrichment ratio is no more than 0.25. Under TRNY stands no more than 0.25; under AFYV, no more than 0.25.

In the case of GHMY, the enrichment ratio was no more than 0.25.

For FCCY, the enrichment ratio is no more than 0.25.

On to SSRY, for which the enrichment ratio was no more than 0.25.

Regarding STVT, the enrichment ratio stood at 0.835.

QKHC: the enrichment ratio is no more than 0.25.

TMKE: the enrichment ratio came out at 13.6. Next, WFSD: no more than 0.25; EKWP: no more than 0.25; KCHQ: no more than 0.25.

As to VTQA, the enrichment ratio was no more than 0.25.

WFTL: the enrichment ratio was no more than 0.25.

Regarding VSTF, the enrichment ratio is no more than 0.25. As for SDTY, the enrichment ratio was no more than 0.25.

For the variant ERNS, the enrichment ratio is no more than 0.25. Next, MACL: 7.63; RAFG: no more than 0.25; GYNY: no more than 0.25. Under FLDY stands no more than 0.25; under NGQR, no more than 0.25; under DYVC, no more than 0.25.

Take YPFG: the enrichment ratio is no more than 0.25. Under VVTN stands no more than 0.25.

Consider ECTD, for which the enrichment ratio was no more than 0.25. Under FNPL stands no more than 0.25; under FQFM, no more than 0.25. Under IIVL stands no more than 0.25; under GDAQ, no more than 0.25. Under NLEA stands no more than 0.25. For the variant NYSP, the enrichment ratio is no more than 0.25. Under YRMV stands no more than 0.25; under HGNM, no more than 0.25. Under TAAF stands 18.4; under WHNK, no more than 0.25; under KCSD, no more than 0.25. GWCN: the enrichment ratio is no more than 0.25. Under PFFK stands no more than 0.25; under QIAT, no more than 0.25.
